Reference: paper PMC7522254
No constants are given. Whether binding was seen depends on the method and setting. For some of these results: Binding seen in cells or lysates may run through a third protein. Some results given as binding are weak or reduced against the parent protein; the word gives no strength. Blank lines part the entries; values can stand above or below the substance they belong to.

Protein sequences, listed by entry. Tags and fused reporters are not part of them. Lines headed by an entry give the natural chain unless they say otherwise; changes in a name come on top. Residues count along the entry.
UniProt Q00987: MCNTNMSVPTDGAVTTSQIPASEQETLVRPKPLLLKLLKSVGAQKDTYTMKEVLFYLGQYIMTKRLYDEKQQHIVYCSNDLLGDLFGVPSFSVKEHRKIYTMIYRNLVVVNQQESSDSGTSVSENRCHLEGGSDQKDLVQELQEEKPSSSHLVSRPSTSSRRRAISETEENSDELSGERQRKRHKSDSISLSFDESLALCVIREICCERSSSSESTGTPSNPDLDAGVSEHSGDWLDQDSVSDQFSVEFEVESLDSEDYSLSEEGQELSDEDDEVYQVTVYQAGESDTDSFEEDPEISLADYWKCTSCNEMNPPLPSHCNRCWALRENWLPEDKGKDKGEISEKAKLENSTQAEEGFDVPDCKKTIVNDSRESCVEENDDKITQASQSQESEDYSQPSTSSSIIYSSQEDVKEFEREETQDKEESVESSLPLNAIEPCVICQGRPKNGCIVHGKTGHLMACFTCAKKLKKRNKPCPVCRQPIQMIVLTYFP
MDM2 N-terminus (1-150), Gal4-BD fusion: residues 1-150 of Q00987
MDM2 central acidic domain (151-350), Gal4-BD fusion: residues 151-350 of Q00987
MDM2 329-451 fragment, Gal4-BD fusion: residues 329-451 of Q00987
MDM2 329-433 fragment, Gal4-BD fusion: residues 329-433 of Q00987
MDM2 C-terminus (351-491), Gal4-BD fusion: residues 351-491 of Q00987
MDM2 351-451 fragment, Gal4-BD fusion: residues 351-451 of Q00987
MDM2 351-433 fragment, Gal4-BD fusion: residues 351-433 of Q00987
MDM2 RING domain (aa 434-491), Gal4-BD fusion: residues 434-491 of Q00987
UniProt P40337: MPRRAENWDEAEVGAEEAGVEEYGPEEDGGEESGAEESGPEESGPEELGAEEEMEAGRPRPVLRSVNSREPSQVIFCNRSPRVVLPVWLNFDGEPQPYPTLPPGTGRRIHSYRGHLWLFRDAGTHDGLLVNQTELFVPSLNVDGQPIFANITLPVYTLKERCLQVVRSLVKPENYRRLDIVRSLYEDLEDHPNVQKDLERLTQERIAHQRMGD
UniProt P23804: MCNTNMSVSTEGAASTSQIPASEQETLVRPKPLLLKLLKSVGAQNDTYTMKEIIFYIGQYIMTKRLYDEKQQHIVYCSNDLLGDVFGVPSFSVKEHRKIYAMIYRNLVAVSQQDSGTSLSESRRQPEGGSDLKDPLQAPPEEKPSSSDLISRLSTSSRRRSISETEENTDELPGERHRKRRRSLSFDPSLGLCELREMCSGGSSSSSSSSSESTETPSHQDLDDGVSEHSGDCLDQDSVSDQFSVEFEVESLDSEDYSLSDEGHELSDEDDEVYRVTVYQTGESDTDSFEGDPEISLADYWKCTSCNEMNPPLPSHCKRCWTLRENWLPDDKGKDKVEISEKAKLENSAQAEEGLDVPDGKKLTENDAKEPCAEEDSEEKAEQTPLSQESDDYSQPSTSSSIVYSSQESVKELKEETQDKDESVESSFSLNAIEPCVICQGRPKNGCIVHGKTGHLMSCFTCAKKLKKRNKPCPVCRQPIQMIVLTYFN

Assays:
[1] = target: Flag-tagged MDM2 (human) (UniProt Q00987); assay: co-IP; HEK293T cells transfected with Flag-MDM2 and HA-pVHL30; 0.2 mg post-nuclear supernatant, anti-FLAG antibody on protein A magnetic beads, 4 h at 4 °C; lysis buffer 20 mM HEPES-Na pH 7.4, 150 mM NaCl, 5 mM CHAPS; blot with anti-HA and anti-VHL
[2] = target: endogenous pVHL of HEK293T cells (human (endogenous in HEK293T)) (UniProt P40337); assay: co-IP; endogenous proteins of HEK293T cells; 500 µg post-nuclear supernatant with anti-MDM2 or anti-VHL antibody, mouse or rabbit IgG as control; reciprocal
[3] = target: green fluorescent protein (GFP)-tagged pVHL19 (human) (UniProt P40337); assay: co-IP; MN-1 cells transfected with pVHL30-GFP, pVHL19-GFP or GFP; 400 µg post-nuclear supernatant, anti-GFP antibody; endogenous MDM2 detected by blot with anti-MDM2
[4] = target: green fluorescent protein (GFP)-tagged pVHL30 (human) (UniProt P40337); assay: as above
[5] = target: endogenous MDM2 of HEK293T cells (human (endogenous in HEK293T)) (UniProt Q00987); assay: co-IP; endogenous proteins of HEK293T cells; 500 µg post-nuclear supernatant with anti-MDM2 or anti-VHL antibody, mouse or rabbit IgG as control; reciprocal
[6] = target: human MDM2 fused with Gal4-binding domain (Gal4-BD), full length (human) (UniProt Q00987); assay: two-hybrid; Matchmaker Gold Two Hybrid System, yeast Y190; MDM2 or its fragments as Gal4-BD bait, pVHL or its fragments as Gal4-AD prey; growth on medium lacking histidine with 30 or 60 mM 3-AT, 3-8 days at 30 °C
[7] = target: MDM2 329-433 fragment, Gal4-BD fusion (human) (UniProt Q00987); assay: as above
[8] = target: MDM2 329-451 fragment, Gal4-BD fusion (human) (UniProt Q00987); assay: as above
[9] = target: MDM2 351-433 fragment, Gal4-BD fusion (human) (UniProt Q00987); assay: as above
[10] = target: MDM2 351-451 fragment, Gal4-BD fusion (human) (UniProt Q00987); assay: as above
[11] = target: MDM2 C-terminus (351-491), Gal4-BD fusion (human) (UniProt Q00987); assay: as above
[12] = target: MDM2 N-terminus (1-150), Gal4-BD fusion (human) (UniProt Q00987); assay: as above
[13] = target: MDM2 RING domain (aa 434-491), Gal4-BD fusion (human) (UniProt Q00987); assay: as above
[14] = target: MDM2 central acidic domain (151-350), Gal4-BD fusion (human) (UniProt Q00987); assay: as above

binding [1]: binds
Substance: HA-tagged pVHL30 (from UniProt P40337-1 1-213)

binding [2]: binds
Substance: endogenous MDM2 of HEK293T cells (from UniProt Q00987 1-491)

binding [3]: no binding | binding [4]: binds
Substance: endogenous MDM2 of MN-1 cells (from UniProt P23804 1-489)

binding [5]: binds
Substance: endogenous pVHL30 of HEK293T cells (from UniProt P40337 1-213)

binding [6]: no binding
Substance: human pVHL19 fused with Gal4-activation domain (Gal4-AD) (from UniProt P40337 54-213)

binding [7]: binds | binding [8]: binds | binding [9]: no binding | binding [10]: binds | binding [11]: binds | binding [12]: no binding | binding [13]: no binding | binding [14]: no binding | binding [6]: binds weakly
Substance: human pVHL30 fused with Gal4-activation domain (Gal4-AD) (from UniProt P40337 1-213)

binding [7]: binds
Substance: pVHL30-N-β fragment (1-157), Gal4-AD fusion (from UniProt P40337 1-157) (domain or fragment)

binding [7]: no binding | binding [6]: no binding
Substance: pVHL C-terminal alpha-domain (aa 158-213), Gal4-AD fusion (from UniProt P40337 158-213) (domain or fragment)

binding [7]: no binding | binding [6]: no binding
Substance: pVHL N-terminus (aa 1-53), Gal4-AD fusion (from UniProt P40337 1-53) (domain or fragment)

binding [7]: no binding | binding [6]: no binding
Substance: pVHL beta-region (aa 54-157), Gal4-AD fusion (from UniProt P40337 54-157) (domain or fragment)
